The list shows a part of the results. Rule as the data show it: active = 3.2 or more and inactive = the rest. Most of these values are background signal.
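Also: displayed peptides selected on beads carrying the immobilized SH2 domain, with library peptides lacking any tyrosine serving as negative controls.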

In the first experiment the target is SHP2 C-SH2 domain E139D. Description: enrichment score (SH2-bound / input frequency) (ratio); bacterial display of known human phosphotyrosine sites (pTyr-Var adds point mutants) read by sequencing; higher = stronger binding; tyrosines were phosphorylated by kinases first. Conditions: peptide library: pTyr-Var.
Regarding YKEQGYHRLPP [RIN1_Y681], the enrichment score was inactive: 1.03.
Turning to LEITWYPFDVE [RIPOR2_Y316], the enrichment score is inactive: 1.21.
EQPNPYMVLDI [ROCK2_Y1197_S1194P]: the enrichment score is inactive: 0.574.
The same measure, in the same setting: to GLTSTYAGIRK [ROBO1_Y932] belongs inactive: 1.24; to LAIERYVVVSK [RHO_Y136_C140S], inactive: 0.869; to LEAVSYSSRFA [RNLS_Y190_YF], inactive: 0.767.
Same read-out and setting: to ESAAIYNPVIY [RHO_Y301_K296E] belongs inactive: 1; to KWHREYNSKFV [RICTOR_Y835_YF], inactive: 1.72; to FAADFYKLLGN [ROR2_Y646_YF], inactive: 0.58.
On the same count and under the same terms, then TVFENYVADIE [RHOA_Y42], with inactive: 0.815; and RFGKVYKAHLF [ROR2_Y488_G490A], with inactive: 0.8.
In the case of LEAVSYSSPYA [RNLS_Y190_R193P], the enrichment score is inactive: 0.731.
Consider KWHREYNFKFV [RICTOR_Y835_S837F_YF], for which the enrichment score was inactive: 2.52.
As for REVVNYVQKRN [RMI1_Y450], the enrichment score was inactive: 0.816.
Still for that read-out and setting: then LGSWTYTKTVS [ROS1_Y144], with inactive: 0.912; and RFGKVYKGHLF [ROR2_Y488], with inactive: 0.608.
The same measure, in the same setting: to IPVNGYQPVPA [ROR2_Y824_V819I] belongs inactive: 0.59; to LARDIYKNDYY [ROS1_Y2110], inactive: 1.08.

In another experiment the target is SHP2 C-SH2 domain wild-type. The experiment is described as above. Conditions: peptide library: pTyr-Var.
Regarding YKEQGYHRLPP [RIN1_Y681], the enrichment score is inactive: 0.803.
On the same count and under the same terms, to LEITWYPFDVE [RIPOR2_Y316] belongs inactive: 1.7; to EQPNPYMVLDI [ROCK2_Y1197_S1194P], inactive: 0.511; to GLTSTYAGIRK [ROBO1_Y932], inactive: 3.1.
In the case of LAIERYVVVSK [RHO_Y136_C140S], the enrichment score was inactive: 0.67.
On to LEAVSYSSRFA [RNLS_Y190_YF], for which the enrichment score was inactive: 0.788.
Still for that read-out and setting: then ESAAIYNPVIY [RHO_Y301_K296E], with inactive: 0.924.
Take KWHREYNSKFV [RICTOR_Y835_YF]: the enrichment score is inactive: 1.59.
For FAADFYKLLGN [ROR2_Y646_YF], the enrichment score is inactive: 0.595.
The same measure, in the same setting: to TVFENYVADIE [RHOA_Y42] belongs inactive: 0.709.
For the molecule RFGKVYKAHLF [ROR2_Y488_G490A], the enrichment score was inactive: 0.881.
As for LEAVSYSSPYA [RNLS_Y190_R193P], the enrichment score is inactive: 1.31.
Still for that read-out and setting: to KWHREYNFKFV [RICTOR_Y835_S837F_YF] belongs inactive: 2.49; to REVVNYVQKRN [RMI1_Y450], inactive: 0.781; to LGSWTYTKTVS [ROS1_Y144], inactive: 0.754.
For RFGKVYKGHLF [ROR2_Y488], the enrichment score was inactive: 0.64.
Turning to IPVNGYQPVPA [ROR2_Y824_V819I], the enrichment score is inactive: 0.662.
Consider LARDIYKNDYY [ROS1_Y2110], for which the enrichment score was inactive: 1.22.

The target in a further experiment is SHP2 N-SH2 domain L43F. Described as above. As to conditions: peptide library: pTyr-Var.
For the molecule YKEQGYHRLPP [RIN1_Y681], the enrichment score was inactive: 0.725.
On the same count and under the same terms, then LEITWYPFDVE [RIPOR2_Y316], with inactive: 1.29; and EQPNPYMVLDI [ROCK2_Y1197_S1194P], with inactive: 0.631; and GLTSTYAGIRK [ROBO1_Y932], with inactive: 0.603.
Regarding LAIERYVVVSK [RHO_Y136_C140S], the enrichment score is inactive: 1.82.
Turning to LEAVSYSSRFA [RNLS_Y190_YF], the enrichment score is inactive: 0.77.
In the case of ESAAIYNPVIY [RHO_Y301_K296E], the enrichment score is inactive: 0.803.
Same read-out and setting: to KWHREYNSKFV [RICTOR_Y835_YF] belongs inactive: 1.52; to FAADFYKLLGN [ROR2_Y646_YF], inactive: 0.579.
Same read-out and setting: then TVFENYVADIE [RHOA_Y42], with inactive: 0.572; and RFGKVYKAHLF [ROR2_Y488_G490A], with inactive: 0.935.
Consider LEAVSYSSPYA [RNLS_Y190_R193P], for which the enrichment score is inactive: 1.15.
On the same count and under the same terms, to KWHREYNFKFV [RICTOR_Y835_S837F_YF] belongs inactive: 2.48.
As to REVVNYVQKRN [RMI1_Y450], the enrichment score is inactive: 0.726.
Still for that read-out and setting: to LGSWTYTKTVS [ROS1_Y144] belongs inactive: 0.994; to RFGKVYKGHLF [ROR2_Y488], inactive: 0.84.
For IPVNGYQPVPA [ROR2_Y824_V819I], the enrichment score was inactive: 0.789.
Still for that read-out and setting: then LARDIYKNDYY [ROS1_Y2110], with inactive: 0.766.

The target of a further experiment is SHP2 N-SH2 domain T42A. The description is as above. As to conditions: peptide library: pTyr-Var.
In the case of YKEQGYHRLPP [RIN1_Y681], the enrichment score was inactive: 0.689.
The same measure, in the same setting: to LEITWYPFDVE [RIPOR2_Y316] belongs inactive: 1.34.
Take EQPNPYMVLDI [ROCK2_Y1197_S1194P]: the enrichment score was inactive: 1.44.
Turning to GLTSTYAGIRK [ROBO1_Y932], the enrichment score was inactive: 0.669.
The same measure, in the same setting: then LAIERYVVVSK [RHO_Y136_C140S], with inactive: 0.978; and LEAVSYSSRFA [RNLS_Y190_YF], with inactive: 0.648.
Regarding ESAAIYNPVIY [RHO_Y301_K296E], the enrichment score was inactive: 0.568.
For KWHREYNSKFV [RICTOR_Y835_YF], the enrichment score was inactive: 1.4.
The same measure, in the same setting: then FAADFYKLLGN [ROR2_Y646_YF], with inactive: 0.481.
The same measure, in the same setting: then TVFENYVADIE [RHOA_Y42], with inactive: 0.649; and RFGKVYKAHLF [ROR2_Y488_G490A], with inactive: 0.469; and LEAVSYSSPYA [RNLS_Y190_R193P], with inactive: 1.88.
Still for that read-out and setting: to KWHREYNFKFV [RICTOR_Y835_S837F_YF] belongs inactive: 2.05.
In the case of REVVNYVQKRN [RMI1_Y450], the enrichment score was inactive: 0.615.
Regarding LGSWTYTKTVS [ROS1_Y144], the enrichment score is inactive: 0.809.
For RFGKVYKGHLF [ROR2_Y488], the enrichment score is inactive: 0.545.
On to IPVNGYQPVPA [ROR2_Y824_V819I], for which the enrichment score is inactive: 0.661.
Still for that read-out and setting: to LARDIYKNDYY [ROS1_Y2110] belongs inactive: 1.

The target of another experiment is SHP2 N-SH2 domain T52S. The description is as above. Conditions: peptide library: pTyr-Var.
With YKEQGYHRLPP [RIN1_Y681], the enrichment score was inactive: 0.753.
Same read-out and setting: then LEITWYPFDVE [RIPOR2_Y316], with inactive: 1.1; and EQPNPYMVLDI [ROCK2_Y1197_S1194P], with inactive: 0.783; and GLTSTYAGIRK [ROBO1_Y932], with inactive: 0.662.
Same read-out and setting: to LAIERYVVVSK [RHO_Y136_C140S] belongs inactive: 0.669; to LEAVSYSSRFA [RNLS_Y190_YF], inactive: 0.727; to ESAAIYNPVIY [RHO_Y301_K296E], inactive: 0.853.
KWHREYNSKFV [RICTOR_Y835_YF]: the enrichment score is inactive: 1.55.
For the molecule FAADFYKLLGN [ROR2_Y646_YF], the enrichment score was inactive: 0.563.
Still for that read-out and setting: to TVFENYVADIE [RHOA_Y42] belongs inactive: 0.726.
For RFGKVYKAHLF [ROR2_Y488_G490A], the enrichment score was inactive: 0.843.
Still for that read-out and setting: to LEAVSYSSPYA [RNLS_Y190_R193P] belongs inactive: 1.2.
In the case of KWHREYNFKFV [RICTOR_Y835_S837F_YF], the enrichment score was inactive: 2.41.
Turning to REVVNYVQKRN [RMI1_Y450], the enrichment score is inactive: 0.866.
Same read-out and setting: then LGSWTYTKTVS [ROS1_Y144], with inactive: 0.757.
RFGKVYKGHLF [ROR2_Y488]: the enrichment score was inactive: 0.598.
With IPVNGYQPVPA [ROR2_Y824_V819I], the enrichment score was inactive: 0.778.
As for LARDIYKNDYY [ROS1_Y2110], the enrichment score is inactive: 1.1.

The target of another experiment is SHP2 N-SH2 domain wild-type. The description is as above. Conditions: peptide library: pTyr-Var.
In the case of YKEQGYHRLPP [RIN1_Y681], the enrichment score was inactive: 0.989.
On the same count and under the same terms, to LEITWYPFDVE [RIPOR2_Y316] belongs inactive: 1.53.
Still for that read-out and setting: to EQPNPYMVLDI [ROCK2_Y1197_S1194P] belongs inactive: 0.722; to GLTSTYAGIRK [ROBO1_Y932], inactive: 0.605; to LAIERYVVVSK [RHO_Y136_C140S], inactive: 0.483.
For LEAVSYSSRFA [RNLS_Y190_YF], the enrichment score is inactive: 0.759.
Consider ESAAIYNPVIY [RHO_Y301_K296E], for which the enrichment score is inactive: 0.805.
Still for that read-out and setting: then KWHREYNSKFV [RICTOR_Y835_YF], with inactive: 1.46; and FAADFYKLLGN [ROR2_Y646_YF], with inactive: 0.863.
Consider TVFENYVADIE [RHOA_Y42], for which the enrichment score is inactive: 0.741.
As for RFGKVYKAHLF [ROR2_Y488_G490A], the enrichment score is inactive: 0.831.
For the molecule LEAVSYSSPYA [RNLS_Y190_R193P], the enrichment score was inactive: 0.742.
On the same count and under the same terms, to KWHREYNFKFV [RICTOR_Y835_S837F_YF] belongs inactive: 2.53.
Take REVVNYVQKRN [RMI1_Y450]: the enrichment score is inactive: 0.766.
Take LGSWTYTKTVS [ROS1_Y144]: the enrichment score was inactive: 0.81.
Regarding RFGKVYKGHLF [ROR2_Y488], the enrichment score is inactive: 0.71.
As to IPVNGYQPVPA [ROR2_Y824_V819I], the enrichment score was inactive: 0.489.
Still for that read-out and setting: then LARDIYKNDYY [ROS1_Y2110], with inactive: 1.1.

For the origin of these results see the supplement of paper PMC10369915.
